Measured values as given in ChEMBL document CHEMBL4888484, “Replenishing the malaria drug discovery pipeline: Screening and hit evaluation of the MMV Hit Generation Library 1 (HGL1) against asexual blood stage Plasmodium falciparum ,using a nano luciferase reporter read-out” (2022).
Out of some 150,000 compounds screened, about 540 (0.36%) showed an effect of 50% or more. The list shows a part of the results.

What follows are compounds tested on Plasmodium falciparum (assay: Primary screen in NF54 nanoGlo assay, in single point, at 2uM, 72h; a lower Z score goes with more inhibition). Details: timepoint 72 hour.
Format: functional, Erythrocyte

| Structure (SMILES) | % Inhibition [%] | Z score |
| --- | --- | --- |
| Cc1cccn(CC(=O)N2CCC(=O)[C@@H](C)C2)c1=O | 2 | -0.36 |
| COC(=O)c1cc(CN2CCC(C3CCOCC3)CC2)c[nH]1 | 4 | -0.55 |
| CC1CCC(C(=O)N2c3ccccc3NC(=O)CC2C)O1 (stereo unspecified) | 33 | -3.76 |
| COCC(=O)N(Cc1ccco1)C1(C(=O)Nc2c(C)cccc2C)CCCC1 | 8 | -0.85 |
| CCCN1CCC[C@H]1CNC(=O)Nc1c(C)noc1C | 1 | -0.22 |
| CC(C)c1nccn1CC(=O)N1Cc2ncccc2N2CCC[C@H]2C1 | -11 | 2.19 |
| CCC(C)(C)C(=O)N1CCC[C@H](c2cc(N3CCOCC3)nc(C)n2)C1 | -21 | 2.64 |
| COCc1ncc(C)n1CC1CN(C(=O)c2ccc(OC)nc2)C1 | -18 | 2.43 |
| COc1cccc(CNC(=O)C(=O)N(C)Cc2cc(C)on2)c1 | -5 | 0.74 |
| COc1ccc(OC[C@@H](O)CN2CCC(O)CC2)c(CNCCCC2CCCC2)c1 | 11 | -1.43 |
| CCN1CN(C(=O)CCc2c[nH]c3ccccc23)CC1=O | -5 | 0.64 |
| Cn1ccnc1CN(c1cc([C@H]2CCOC2)nc(NCCO)n1)C1CC1 | -9 | 1.41 |
| C[C@]1(CO)C2CC[C@@H](O)[C@@H](CC(=O)NCc3cccs3)[C@]2(C)CC[C@H]1OC(=O)NC1CCCCC1 (stereo partly specified) | 16 | -1.84 |
| Cc1c(CC(=O)NS(=O)(=O)CC2CCCCC2)cnn1C | -10 | 2.02 |
| CS(=O)(=O)NC1CCC(F)(F)CC1 | -19 | 2.46 |
| COC(CNC(=O)OCC1CCCCC1)OC | -2 | 0.22 |
| CN1C(=O)CN(Cc2nc(C3CC(C)(C)CC(C)(C)C3)no2)C1=O | -2 | 0.3 |
| CC(=O)N1CCc2cc(Br)c(S(=O)(=O)NCCCN3CCCC3)cc21 | -14 | 1.59 |
| O=C1C2ON(c3ccccc3)C(c3cccc4ccccc34)C2C(=O)N1c1cccc(Cl)c1 (stereo unspecified) | -10 | 1.08 |
| O=C(c1ncccc1Cl)N(Cc1cccnc1)Cc1ccco1 | -10 | 1.3 |
| Cn1cc(C2CC2C(=O)Nc2ccc3c(c2)N(S(N)(=O)=O)CC3)cn1 (stereo unspecified) | -3 | 0.51 |
| COCc1nccc(N2CCC[C@H]2c2nc(-c3ccccc3)n[nH]2)n1 | -8 | 0.86 |
| O=C(NCC1CN(c2ccc(C(F)(F)F)cn2)C2CCN1C2)c1cc(Cl)c[nH]1 (stereo unspecified) | 1 | -0.2 |
